Reference: PubChem BioAssay AID720542 (National Center for Advancing Translational Sciences (NCATS), 2013)
Hit rate of the full screen: of about 360,000 compounds, about 740 (0.21%) were called active. Inconclusive means that the source gave no clear call. Such entries were picked first, then a sample of the others. The call rests on the fitted dose curve; in most records, active means well fitted inhibition curve with a large enough effect; inconclusive means small, poorly fitted or top-dose-only effect; inactive means no such curve, though single readings can be large or run the other way. Potencies of inconclusive entries are left out as doubtful fits.

These compounds were tested on Plasmodium falciparum AMA1 (3D7) - RON2 peptide interaction (assay: qHTS for Inhibitors of AMA1-RON; Towards Development of Antimalarial Drug Lead: Primary Screen). Conditions: AlphaScreen AMA1-biotinylated RON2 peptide binding; activity change, negative = inhibition: at 58.2 µM (top of the series) unless noted.
Method in brief: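 AMA1 (3D7) with his tag at 25 nM final met compounds first, then biotinylated RON2 peptide at 25 nM; detection used donor plus acceptor beads, 10 µg/mL apiece, read by AlphaScreen after 30 min at room temperature.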
Further: nearly all actives have a fitted effect of over 45% in size.
Potency means the concentration at half of the fitted maximal effect; tags describe the fitted curve by direction and shape.
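Wherever activity change, negative = inhibition is given: 0% = vehicle wells and -100% = peptide control.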

Compound	Potency	activity change, negative = inhibition
COc1ccc(-c2nnc(SCc3ccccc3)n2N)cc1	inconclusive [inhibitor, partial curve]	–
Cc1cc(C)cc(OCC(=O)N2N=C(C(F)(F)F)CC2(O)C(C)(C)C)c1 (configuration not stated)	–	inactive: 1.76%
CCC1(CC)Nc2ccccc2C(=O)N1c1ccc(OC)cc1	–	inactive: 8.07%
COc1ccc(C2CC(=O)Oc3c(C(CCN4CCCCC4)c4ccc(N(C)C)cc4)c(OC)cc(OC)c32)cc1 (configuration not stated)	inconclusive [inhibitor, partial curve]	–
O=C(COCc1cc(-c2ccc3c(c2)OCO3)on1)N1CCN(c2ccc(F)cc2)CC1	–	inactive: -2.01%
CN(CCc1ccccc1)c1cc2c(c3c1ccn3C)C1CCC2O1 (configuration not stated)	inconclusive [inhibitor, single point]	–
CCOc1ccc(/C=C(\C#N)C(=O)NC2CC2)c(OCC)c1	inconclusive [inhibitor, single point]	–
CC1CCN(c2ccc(C(=O)NCc3ccco3)cc2[N+](=O)[O-])CC1	–	inactive: 0.106% [at 2.32 µM]
COC(=O)C1=C(C)N(Cc2ccc(C)cc2)C(=O)/C1=C\c1cc(OC)c(OC)c(OC)c1	active: 35.5 µM	–
O=C(c1ccccc1)c1c[nH]c(C(=O)NNc2ccccc2)c1	inconclusive [inhibitor, partial curve]	–
COc1ccccc1N1CCN(c2nc3ccccc3nc2C(C#N)C(=O)OC(C)C)CC1 (configuration not stated)	inconclusive [inhibitor, partial curve]	–
Cc1cc(F)c(F)c(C(=O)N2CCN(C)CC2)c1Cl	–	inconclusive: -14.5% [inhibitor]
Cc1csc(NC(=O)c2ccc(COc3ccccc3)o2)n1	inconclusive [inhibitor, single point]	–
COc1ccc(S(=O)(=O)NCC(c2ccc3c(c2)OCO3)N2CCN(c3ccccc3)CC2)cc1 (configuration not stated)	inconclusive [inhibitor, full curve]	–
COc1ccc(Br)cc1CN1CCN(C(=O)c2ccco2)CC1	inconclusive [inhibitor, partial curve]	–
Cc1cccc(Nc2nc(NCc3ccco3)c3ccccc3n2)c1	inconclusive [inhibitor, single point]	–
CN(C(=O)c1ccc(S(=O)(=O)c2cccc(Cl)c2)c([N+](=O)[O-])c1)C1CCCCC1	inconclusive [inhibitor, partial curve]	–
CCOC(=O)N1CCC(N2CCN(S(=O)(=O)c3ccc(Cl)cc3)CC2)CC1	inconclusive [inhibitor, partial curve]	–
COc1cc(CNCc2cc(OC)ccc2OC)cc(OC)c1	inconclusive [inhibitor, partial curve]	–
Cc1ccc(Nc2ccc(S(=O)(=O)N3CCOCC3)cc2[N+](=O)[O-])cc1C	inconclusive [inhibitor, single point]	–
Cc1ccc(S(=O)(=O)NC(=O)Nc2cc(C)on2)cc1	–	inactive: 39%
COC1=NC(=C(c2ccccc2)c2ccccc2)OC1=O	inconclusive [inhibitor, single point]	–
O=C(c1cnn(-c2ccc(Cl)cc2)c1)c1ccccc1O	inconclusive [inhibitor, full curve]	–
COC1=C(Nc2ccccc2OC)C(=O)c2ccccc2C1=O	inconclusive [inhibitor, partial curve]	–

Compound	Potency	activity change, negative = inhibition
COC(=O)N/N=C\c1c(C)[nH]n(-c2ccccc2)c1=O	–	inactive: 90.3%
Cc1ccc(SCc2cc(=O)[nH]c(Nc3nc(C)c4cccc(C)c4n3)n2)cc1	–	inactive: 3.23%
CCc1nn(-c2ccccc2)c(=S)c2ccccc12	inconclusive [inhibitor, single point]	–
O=C(c1ccco1)N1CCCC(c2ccccc2)C1 (configuration not stated)	inconclusive [inhibitor, partial curve, poor fit]	–
COc1ccc(N2CCN(CC(O)c3c[nH]c4ccc(OC)cc34)CC2C)cc1 (configuration not stated)	inconclusive [inhibitor, single point]	–
CC[C@@]12C(=O)N(c3cccc(F)c3)C(=O)N1[C@H](c1ccc(Cl)cc1)[C@@H]1C(=O)N(C3CCCCC3)C(=O)[C@@H]12	–	inactive: -12.8%
Cc1ccc(C2c3c(-c4ccccc4O)n[nH]c3C(=O)N2Cc2ccncc2)cc1 (configuration not stated)	–	inactive: 54.7%
C/C(=N\Nc1ccccc1[N+](=O)[O-])c1ccccc1O	inconclusive [inhibitor, full curve]	–
CCc1ccc(NC(=O)CSc2nnc(-c3cnccn3)n2C)cc1	–	inactive: 4.46%
Cc1ccc(P(=O)(CC(=O)O)c2ccc(C)cc2)cc1	inconclusive [inhibitor, partial curve]	–
COc1ccc(CCNc2nc(N3CCOCC3)nc(N3CCOCC3)n2)cc1OC	–	inactive: 3.93%
COc1ccccc1-c1nc(C#N)c(N2CCCCCC2)o1	inconclusive [inhibitor, partial curve]	–
c1coc(-c2nnc(-c3ccco3)nn2)c1	active: 15.8 µM	–
COc1cc(NS(=O)(=O)c2ccc(NC(=O)c3ccco3)cc2)nc(OC)n1	–	inactive: -6.87%
O=C(CSc1ccc2nnc(-c3ccccn3)n2n1)Nc1ccc2c(c1)OCO2	inconclusive [inhibitor, single point]	–
COc1ccc(N2CCN(C(c3cc(OC)ccc3OC)c3nnnn3Cc3ccco3)CC2)cc1 (configuration not stated)	inconclusive [inhibitor, single point]	–
CCCCc1ccc(NC(=O)CN(C)CC(=O)Nc2ccccc2Cl)cc1	–	inactive: 43%
CC(C)NC(=S)NC(=O)/C=C/c1ccc(F)cc1	–	inactive: -14.2%
Cc1ccc(Sc2cc(C(=O)NCCN(C)C)c3ccccc3n2)cc1	–	inactive: 1.14%
CCN(c1ccc(NC(=O)COC(=O)c2ccc3ccccc3n2)cc1)C(C)C	inconclusive [inhibitor, single point]	–
O=C(OCCc1cc2ccccc2c(=O)o1)N1CCOCC1	–	inactive: -0.737%
CCOc1ccc(S(=O)(=O)N(C)CC(=O)N2CCCC2)cc1	–	inactive: -7.18%
CCOc1ccc(CN(C)CC(O)COC(c2ccc(OC)cc2)c2ccc(OC)cc2)cc1 (configuration not stated)	inconclusive [inhibitor, partial curve]	–
